According to PubChem BioAssay AID1346428 (National Center for Advancing Translational Sciences (NCATS), 2018):
About 1,200 (2.5%) of roughly 48,000 compounds were called active. About 2% were inconclusive and are not listed.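 How the source made its calls: active means activation of at least 60% and not above a set upper limit (about 1 call in 100 departs from these limits); inconclusive means activation of 40% to 60%, or above that upper limit; inactive means activation under 40%.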 Some of the results follow.

The compounds below were run against Probable G-protein coupled receptor 32 (Homo sapiens) (UniProt O75388) (assay: qHTS for Agonists of Human Resolvin D1 Receptor DRV1). Conditions: CHO-K1 GPR32 beta-arrestin PathHunter luminescence, 90 min; at 76.9 µM; active compounds read high; zero percent set by DMSO-only wells.
Outline: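 Luminescent readout of beta-Gal complementation quantifies ligand-induced beta-arrestin association with GPR32 in CHO-K1 cells; 90 min compound incubation at 37 °C, detection 1 h at room temperature.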
Further: 0% is about no effect.

UniProt O75388, sequence (O75388 whole entry, looked up): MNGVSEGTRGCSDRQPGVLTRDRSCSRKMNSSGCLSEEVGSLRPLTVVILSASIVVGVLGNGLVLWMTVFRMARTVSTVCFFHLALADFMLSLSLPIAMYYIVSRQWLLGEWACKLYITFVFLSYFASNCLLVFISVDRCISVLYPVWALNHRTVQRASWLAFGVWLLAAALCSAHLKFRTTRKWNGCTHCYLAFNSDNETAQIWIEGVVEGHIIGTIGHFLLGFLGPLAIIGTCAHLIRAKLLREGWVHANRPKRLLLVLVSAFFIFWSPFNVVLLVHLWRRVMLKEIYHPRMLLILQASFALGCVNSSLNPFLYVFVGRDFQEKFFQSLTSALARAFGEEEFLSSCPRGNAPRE

activation, inactive:
COC(=O)[C@H](NC(=O)c1cc(-c2ccccc2)nc2ccccc12)c1ccccc1 -27.8%, Cc1ccc2scc(N3CCCCC3C)c(=O)c2c1 (centres undefined) -13.9%, COc1ccc(Cn2c(SCC(=O)N3CCN(c4ccc(F)cc4)CC3)nc3ccccc32)cc1 -17.9%, O=C(CN1CCN(Cc2ccc(F)cc2)C1=O)NCc1ccc(F)cc1 -14.7%, N[C@H](Cc1c[nH]c2ccccc12)C(=O)O -0.614%, COc1ccc(CCNC(=O)CCCn2c(=O)c3ccccc3n(CC(=O)Nc3ccccc3C)c2=O)cc1OC 5.89%, Cc1ccc(C2CC(=O)N(Cc3ccc(F)cc3)c3c2c(C)nn3-c2nc(C)cc(C)n2)cc1 (centres undefined) -17.4%, Cc1ccccc1CNC(=O)CN1C(=O)CCCc2ccccc21 -12%, Cc1ccc(NC2(c3ccccc3)C(=O)c3ccccc3C2=O)cc1F -61.5%, CC1CCN(S(=O)(=O)c2ccc3c(c2)N(CC(=O)NCCCOC(C)C)C(=O)CO3)CC1 -7.44%, Cc1sc(C2C(C#N)=C(N)N(c3ccc(Cl)cc3)C3=C2C(=O)CCC3)cc1CN1CCOCC1 (centres undefined) -32%, O=C(COc1ccccc1)N(Cc1cccnc1)c1nc2c(F)cc(F)cc2s1 -22.6%, Cc1ccsc1CN(C(=O)COc1ccccc1Cl)C1CCS(=O)(=O)C1 (centres undefined) -14.9%, CCc1ccccc1NC(=O)CN(c1ccccc1OC)S(=O)(=O)c1ccc(C)cc1 -4.35%, COCCNC(=O)Cn1c(-c2cccs2)cc2cc(Cl)ccc21 -4.37%, CCC(C)NC(=O)CCCn1c(=O)c2cccn2c2ccccc21 (centres undefined) 23.6%, CCOC(=O)CSc1nc2sc3c(c2c(=O)n1Cc1ccccc1)CC(C(C)C)OC3 (centres undefined) -4.9%, COCCNC(=O)CN1C(=O)COc2ccc(S(=O)(=O)N3CCCCCC3)cc21 8.02%, CCC(C(=O)NC1CCCCC1)n1c(SCc2ccccc2F)nc2ccncc21 (centres undefined) -15.6%, COc1ccc(C2C(=O)N(C3CCCCCC3)CC(=O)N2CCc2ccc(Cl)cc2)cc1OC (centres undefined) -18.5%, CCc1ccc(NC(=O)CSc2ccc(-c3sc(-c4ccccc4)nc3C)nn2)cc1 -5.13%, Cc1ccccc1C(=O)Nc1cccc(NC(=O)c2ccc(C(C)(C)C)cc2)c1 -5.46%, Cc1nn(C(C)C(=O)NCCc2ccccc2)c(=O)c2c1sc1ccccc12 (centres undefined) -24.1%, CCN(Cc1ccccc1)c1nc2c(S(=O)(=O)c3ccccc3)nnn2c2ccc(Cl)cc12 -9.3%
